The record followed here is paper PMC12820563.

The other results are listed elsewhere or left out. The list includes weakly bound sequences.

The target of the experiment is T1, MBP-FoxP3dN (UniProt Q99JB6).
T1 sequence: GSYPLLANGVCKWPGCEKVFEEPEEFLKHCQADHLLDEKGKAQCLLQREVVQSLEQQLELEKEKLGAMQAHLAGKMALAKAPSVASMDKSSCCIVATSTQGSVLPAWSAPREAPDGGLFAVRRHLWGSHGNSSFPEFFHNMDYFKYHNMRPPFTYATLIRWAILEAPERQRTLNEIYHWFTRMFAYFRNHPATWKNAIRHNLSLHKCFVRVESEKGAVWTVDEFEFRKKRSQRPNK
Description: PD-seq (MBP pull-down with sequencing). The note with it: 20 mM Tris-HCl pH 7.5, 100 mM NaCl, 1.5 mM MgCl2, 0.4 uM protein, 0.1 uM dsDNA library, 30 min, room temperature, amylose pull-down; high values mean tight binding; double strand, one strand shown.
As to “GATGATTGTTCTCCCAGCTGATGAATTCCCATAATCGAGTAAACAAATTTTCCTAATCTTTCTGTTCAAGCGCCATCTAC”, the binding signal (RPM ratio (pull-down/input)) is 0.258.

For the sequence “GATGATTGTTCTCCCAGCTGATGAATTACCGCGATCGAGTAAACAAATTTTCCTAATCTTTCTGTTCAAGCGCCATCTAC”, the binding signal (RPM ratio (pull-down/input)) was found to be 0.524.

As for “GATGATTGTTCTCCCAGCTGATGAATTAAGCTTGTCGAGTAAACAAATTTTCCTAATCTTTCTGTTCAAGCGCCATCTAC”, the binding signal (RPM ratio (pull-down/input)) came to 2.78. With “GATGATTGTTCTCCCAGCTGATGAATTAGAGAACTCGAGTAAACAAATTTTCCTAATCTTTCTGTTCAAGCGCCATCTAC”, the binding signal (RPM ratio (pull-down/input)) came to 0.229. For “GATGATTGTTCTCCCAGCTGATGAATTTCTTGATTCGAGTAAACAAATTTTCCTAATCTTTCTGTTCAAGCGCCATCTAC”, the binding signal (RPM ratio (pull-down/input)) was 0.43. Regarding “GATGATTGTTCTCCCAGCTGATGAATTGACCTCGTCGAGTAAACAAATTTTCCTAATCTTTCTGTTCAAGCGCCATCTAC”, the binding signal (RPM ratio (pull-down/input)) came out at 0.289.

As for “GATGATTGTTCTCCCAGCTGATGAATTGGTCGAATCGAGTAAACAAATTTTCCTAATCTTTCTGTTCAAGCGCCATCTAC”, the binding signal (RPM ratio (pull-down/input)) stood at 0.299.

With “GATGATTGTTCTCCCAGCTGATGAATTGTGTATCTCGAGTAAACAAATTTTCCTAATCTTTCTGTTCAAGCGCCATCTAC”, the binding signal (RPM ratio (pull-down/input)) came to 6.36. Consider “GATGATTGTTCTCCCAGCTGATGAATTCAACCGCTCGAGTAAACAAATTTTCCTAATCTTTCTGTTCAAGCGCCATCTAC”, for which the binding signal (RPM ratio (pull-down/input)) came to 0.233. As for “GATGATTGTTCTCCCAGCTGATGAATTGAGAAGCTCGAGTAAACAAATTTTCCTAATCTTTCTGTTCAAGCGCCATCTAC”, the binding signal (RPM ratio (pull-down/input)) was 0.212. On to “GATGATTGTTCTCCCAGCTGATGAATTACTGTGGTCGAGTAAACAAATTTTCCTAATCTTTCTGTTCAAGCGCCATCTAC”, for which the binding signal (RPM ratio (pull-down/input)) was 0.412. On to “GATGATTGTTCTCCCAGCTGATGAATTCGGTTCTTCGAGTAAACAAATTTTCCTAATCTTTCTGTTCAAGCGCCATCTAC”, for which the binding signal (RPM ratio (pull-down/input)) amounted to 0.963. On to “GATGATTGTTCTCCCAGCTGATGAATTTGAAGTCTCGAGTAAACAAATTTTCCTAATCTTTCTGTTCAAGCGCCATCTAC”, for which the binding signal (RPM ratio (pull-down/input)) came out at 0.493. On to “GATGATTGTTCTCCCAGCTGATGAATTTATCGTTTCGAGTAAACAAATTTTCCTAATCTTTCTGTTCAAGCGCCATCTAC”, for which the binding signal (RPM ratio (pull-down/input)) worked out at 2.47. Regarding “GATGATTGTTCTCCCAGCTGATGAATTCACAAACTCGAGTAAACAAATTTTCCTAATCTTTCTGTTCAAGCGCCATCTAC”, the binding signal (RPM ratio (pull-down/input)) is 0.364. “GATGATTGTTCTCCCAGCTGATGAATTAGAAAACTCGAGTAAACAAATTTTCCTAATCTTTCTGTTCAAGCGCCATCTAC”: the binding signal (RPM ratio (pull-down/input)) was 0.244. The value for “GATGATTGTTCTCCCAGCTGATGAATTCGTGTCGTCGAGTAAACAAATTTTCCTAATCTTTCTGTTCAAGCGCCATCTAC” was 1.17; that for “GATGATTGTTCTCCCAGCTGATGAATTTTCTCGGTCGAGTAAACAAATTTTCCTAATCTTTCTGTTCAAGCGCCATCTAC” was 0.178. In the case of “GATGATTGTTCTCCCAGCTGATGAATTATACCATTCGAGTAAACAAATTTTCCTAATCTTTCTGTTCAAGCGCCATCTAC”, the binding signal (RPM ratio (pull-down/input)) was found to be 0.547. With “GATGATTGTTCTCCCAGCTGATGAATTGAATCAGTCGAGTAAACAAATTTTCCTAATCTTTCTGTTCAAGCGCCATCTAC”, the binding signal (RPM ratio (pull-down/input)) came to 0.31.

Consider “GATGATTGTTCTCCCAGCTGATGAATTCGCTAGCTCGAGTAAACAAATTTTCCTAATCTTTCTGTTCAAGCGCCATCTAC”, for which the binding signal (RPM ratio (pull-down/input)) stood at 0.479. “GATGATTGTTCTCCCAGCTGATGAATTTCAATGGTCGAGTAAACAAATTTTCCTAATCTTTCTGTTCAAGCGCCATCTAC”: the binding signal (RPM ratio (pull-down/input)) worked out at 0.455. In the case of “GATGATTGTTCTCCCAGCTGATGAATTCAATGATTCGAGTAAACAAATTTTCCTAATCTTTCTGTTCAAGCGCCATCTAC”, the binding signal (RPM ratio (pull-down/input)) came out at 0.879. As to “GATGATTGTTCTCCCAGCTGATGAATTACCACAATCGAGTAAACAAATTTTCCTAATCTTTCTGTTCAAGCGCCATCTAC”, the binding signal (RPM ratio (pull-down/input)) came out at 0.556.

For the sequence “GATGATTGTTCTCCCAGCTGATGAATTCCTAATTTCGAGTAAACAAATTTTCCTAATCTTTCTGTTCAAGCGCCATCTAC”, the binding signal (RPM ratio (pull-down/input)) stood at 0.286.

Regarding “GATGATTGTTCTCCCAGCTGATGAATTGTGTTCATCGAGTAAACAAATTTTCCTAATCTTTCTGTTCAAGCGCCATCTAC”, the binding signal (RPM ratio (pull-down/input)) was determined as 1.77. As for “GATGATTGTTCTCCCAGCTGATGAATTGAGTAACTCGAGTAAACAAATTTTCCTAATCTTTCTGTTCAAGCGCCATCTAC”, the binding signal (RPM ratio (pull-down/input)) came out at 1.15. For “GATGATTGTTCTCCCAGCTGATGAATTCCCGGAATCGAGTAAACAAATTTTCCTAATCTTTCTGTTCAAGCGCCATCTAC”, the binding signal (RPM ratio (pull-down/input)) was found to be 0.137. As for “GATGATTGTTCTCCCAGCTGATGAATTGTGCATTTCGAGTAAACAAATTTTCCTAATCTTTCTGTTCAAGCGCCATCTAC”, the binding signal (RPM ratio (pull-down/input)) was 7.44.

Consider “GATGATTGTTCTCCCAGCTGATGAATTCTTAGTCTCGAGTAAACAAATTTTCCTAATCTTTCTGTTCAAGCGCCATCTAC”, for which the binding signal (RPM ratio (pull-down/input)) was 0.339. As to “GATGATTGTTCTCCCAGCTGATGAATTGGACCATTCGAGTAAACAAATTTTCCTAATCTTTCTGTTCAAGCGCCATCTAC”, the binding signal (RPM ratio (pull-down/input)) amounted to 0.374.
